The text below walks through data of the supplement of paper PMC10338343.

± gives the standard deviation. Over roughly 5,500 sequences, “pre-steady-state target cleavage rate” has its median near 0.1; the highest 2% begin near 0.64. This is a selection; strong and weak results do not stand in their true shares.

This assay concerns MIWI (PIWIL1) piRISC loaded with piRNA #2 (30 nt). In words: pre-steady-state target cleavage rate (min^-1); MIWI and MILI are mouse PIWI proteins and EfPiwi is from a freshwater sponge; tags in brackets are library labels; higher = faster piRNA-guided slicing of the target. The note with it: guide: piRNA #2 5'p-UUAGGUAACCCAGUAGAUCCAGAGGAAUUC; auxiliary factor: 500 nM mouse GTSF1. In outline: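 Three pooled Cleave-'n-Seq trials supplied the data, with k3 capped at 0.0001 min^-1. In each, […] transcribed, DNA-blocked target RNA library and 1 nM active affinity-purified piRISC with one synthetic guide reacted in HEPES–potassium acetate buffer at 33 °C for 0–8 or 0–960 min, with or without 500 nM GTSF1 partner protein. Uncleaved targets were sequenced and normalised to depth and to weakly complementary targets. A burst-and-steady-state fit provided the pre-steady-state cleavage rate.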
As to CUUAAGGUCAGGAUCUACUGCGUUACCUAA, the “pre-steady-state target cleavage rate” value was 0.0372 ± 0.013.
For the sequence CUUAACCUCUCGAUCUACUGGGUUACCAAA, the “pre-steady-state target cleavage rate” value came out at 0.323 ± 0.033.
The value for CUAUGCCUCUGGAUCUACUGGGUUACCUAA was 0.275 ± 0.037; that for CUUAAGGAGUGGAUCCACUGGGUUACCUAA was 0.0904 ± 0.015.
The value for CUUUUCCUAUGGAUCUACUGGGUUACCUAA was 0.566 ± 0.048; that for CUUUUGCCUCUGGAUCUACUGGGUUACCUAA was 0.274 ± 0.039; that for CUUAAGCUCUGGAUCUACUGGGAAUCCUAA was 0.0233 ± 0.0084.
The same measure for CUAUUGCUCUGGAUCAACUGGGUUACCUAA: 0.118 ± 0.018; for CUUAAGCUCUGGAUCUACUGGGUUACUAA: 0.0907 ± 0.012; for CUUAACCUCUGGAACUACUCGGUUACCUAA: 0.0861 ± 0.0088.
In the case of CUAUUCCUCUGGAUCAAGUGGGUUACCUAA, the “pre-steady-state target cleavage rate” value came out at 0.00774 ± 0.0026.
The value for CAAUUGGUCUGGAUCUACUGGGUUACCUAA was 0.355 ± 0.039; that for CAAUUCCUCUGGAUCUUCUGGGUUACGUAA was 0.397 ± 0.061; that for CUUAUCCUCUGGAUCUACUGGGUUAGCCUAA was 0.445 ± 0.054.
The same measure for “CUUAAGCUCUGGAUCUACUGGGUUUGGAUA [g7:g24:cont:t1A]”: 0.0255 ± 0.01; for CUUAAGCUCUGGAUCUACUCGGUUUCCUAA: 0.0101 ± 0.0055.
Regarding CUUAUCCUCAGGAUCUACUGGCUUACCUAA, the “pre-steady-state target cleavage rate” value stood at 0.0719 ± 0.019.
The value for GAAUUCCACUGGAUCUACUGGGUUACCAAA was 0.542 ± 0.065.
On to CUUAAGGAGAGGAUCUACUGUGUUACCUAA, for which the “pre-steady-state target cleavage rate” value was determined as 0.205 ± 0.046.
Consider CUUAACCUCUGGAUCUACAGGGUUACCUUA, for which the “pre-steady-state target cleavage rate” value came to 0.149 ± 0.018.
The value for CAAUUCCUCUGCAUCUACUGGGUUACGUAA was 0.426 ± 0.043; that for CUUAAGGUCUGCAUGUACUGGGUUACCUAA was 0.0864 ± 0.041.
Take “CUUAUCCUCUGGAUCUACUGGGUUACCUAU [g2:g26:cont:t1U]”: the “pre-steady-state target cleavage rate” value came out at 0.339 ± 0.051.
As for GAAUUCCUCUGGAUCAACUGGGAUACCUAA, the “pre-steady-state target cleavage rate” value was determined as 0.171 ± 0.032.
Regarding CAAUUCCUCUGGAUCUGCUGGGUUACCUAA, the “pre-steady-state target cleavage rate” value was 0.641 ± 0.08.
For GAAUUCCUCUGGAUCUUCUGGGUUACCUAA, the “pre-steady-state target cleavage rate” value is 0.274 ± 0.047.
The same measure for CUUUUCCUCUGGAUCUACUGGGUUUACCUAA: 0.46 ± 0.048; for CAAUUCCUCUGGAUCAACUGGGUUACCUAA: 0.446 ± 0.049; for CUUAAGGAGAGGAUCUACUGGGUUACCGAA: 0.00743 ± 0.0071.
As to CUUAAGGUGUGGAACUACUGGGUUACCUAA, the “pre-steady-state target cleavage rate” value was 0.0339 ± 0.025.
The same measure for CAAUUCCUCUGGGAUCUACUGGGUUACCUAA: 0.582 ± 0.05.
Take CUUAAGGAGUGGAUCUACUGGGUUUACCUAA: the “pre-steady-state target cleavage rate” value was found to be 0.0473 ± 0.013.
The value for GAAAUUCCUCUGGAUCUACUGGGUUACCUAA was 0.283 ± 0.053.
The value for CAAUUGCUCAGGAUCUACUGGGUUACCUAA was 0.574 ± 0.044.
The same measure for CUUAAGGAGACCUAGAUCUGGCGUUACCUAA: 0.00657 ± 0.0014; for CUUAUCCUCUGGAUCUACUGGGUUACCUGAA: 0.549 ± 0.18.
In the case of CUUAAGGUCUGGAUGUACUGGGUUACGUAA, the “pre-steady-state target cleavage rate” value amounted to 0.246 ± 0.07.
The same measure for CAAUUCCUCUGCAACUACUGGGUUACCUAA: 0.518 ± 0.048.
The same measure for CUUUUCCUCUGGAUCUACUGGGUUACCAA: 0.448 ± 0.061; for CUUUUCCUGUGGUUCUACUGGGUUACCUAA: 0.208 ± 0.017; for CUUAUCCUCUGGAUCUACUGGGUUAACCUAA: 0.418 ± 0.05.
With CUUAAGGAGUGGAUCUACUUGGUUACCUAA, the “pre-steady-state target cleavage rate” value came out at 0.0107 ± 0.0047.
Consider CUUAAGGAGAGGAUCAACUGGGUUACGUAA, for which the “pre-steady-state target cleavage rate” value turned out to be 0.00518 ± 0.0036.
For CUAUUCCUCUGGAACAACUGGGUUACCUAA, the “pre-steady-state target cleavage rate” value worked out at 0.425 ± 0.044.
The value for GAAUUCCUCUGGAUCUACUGGGUUACCUCA was 0.278 ± 0.054; that for CUUAUCCUGUCGAUCUACUGGGUUACCUAA was 0.395 ± 0.03; that for CUUAAGGUCUGGAUCUACGGGGUUACCUAA was 0.0508 ± 0.0073.
CUUAACGUCUGGAUGUACUGGGUUACCUAA: the “pre-steady-state target cleavage rate” value turned out to be 0.075 ± 0.033.
The value for CUAUUCCACUGGAUCUACUGGGUUACCUUA was 0.456 ± 0.062.
The value for CUUAAGGUCUGGAUCUAGUGCGUUACCUAA was 0.0306 ± 0.0086; that for CUUAACGUCUGGAUCAACUGGGUUACCUAA was 0.145 ± 0.017.
The same measure for CUAUUCCUCUGGAUCUUCUGGGUUACCAAA: 0.244 ± 0.047.
CAAAUCCUCUGGAUCUACUGGGAUACCUAA: the “pre-steady-state target cleavage rate” value stood at 0.384 ± 0.054.
Take CUUAACCUCUGGAUCAUACUGGGUUACCUAA: the “pre-steady-state target cleavage rate” value turned out to be 0.00828 ± 0.0033.
As to CAAUUCCUCUGGAUCUACUGGCUUACCAAA, the “pre-steady-state target cleavage rate” value is 0.0687 ± 0.028.
CUAUACCUCUGGAACUACUGGGUUACCUAA: the “pre-steady-state target cleavage rate” value stood at 0.468 ± 0.045.
CUUAAGGACAGGAUGUACUGGGUUACCUAA: the “pre-steady-state target cleavage rate” value was determined as 0.0478 ± 0.028.
As for CUAUUCCUCUGGAUCUACUGGGUUACCAAA, the “pre-steady-state target cleavage rate” value came to 0.477 ± 0.061.
As to CUUAACCUCUGGUUCUACUGGGUUACGUAA, the “pre-steady-state target cleavage rate” value was determined as 0.33 ± 0.031.
With CAAUUCCGCUGGAUCUACUGGGUUACCUAA, the “pre-steady-state target cleavage rate” value is 0.535 ± 0.052.
The value for CUAUUCCUCUGGAUCUACUGGGUGACCUAA was 0.285 ± 0.031.
The same measure for CAAUUCCUCUGGAACUACUGCGUUACCUAA: 0.376 ± 0.037; for CUUAACCUCUGGAUCUACUGGGUAACGUAA: 0.167 ± 0.025; for CUUAACCUCUGGAUCUACUGGAUUACCUAA: 0.259 ± 0.029.
Consider CUUUUCCUCUGGCUCUACUGGGUUACCUAA, for which the “pre-steady-state target cleavage rate” value was determined as 0.579 ± 0.036.
On to CUUAAGGAGACCUAGUAGACGGUUACCUAA, for which the “pre-steady-state target cleavage rate” value is less than 0.0001.
With CUUAUCCUCUGGAUCUACUGGGUUAGGAAA, the “pre-steady-state target cleavage rate” value worked out at 0.00867 ± 0.0047.
For the sequence CAAUACCUCUGGAUCUAGUGGGUUACCUAA, the “pre-steady-state target cleavage rate” value is 0.138 ± 0.022.
The same measure for CUUAUCCUCUGGAUCUACACCGUUACCUAA: 0.105 ± 0.015.
With CUAUUCCUCUGGAUGUUCUGGGUUACCUAA, the “pre-steady-state target cleavage rate” value was determined as 0.336 ± 0.04.
The same measure for CUUAAGGUCUGGAUCUACUGCGUAACCUAA: 0.0411 ± 0.021; for CAAUUCCACUGGAUCUACUGGGUUACCUAA: 0.551 ± 0.069.
